Measurements reported in article PMC9911399, “Two distinct binding modes provide the RNA-binding protein RbFox with extraordinary sequence specificity”.
Numbering of substitutions follows the chain as printed; changes in the protein carry UniProt numbers. The list shows a part of the results.

T1: RBFOX1 RRM RbFoxmut (Fox-RRM*) (Homo sapiens, UniProt Q9NWB1 109-208, R118D;E147R;N151S;E152T)
T1 sequence: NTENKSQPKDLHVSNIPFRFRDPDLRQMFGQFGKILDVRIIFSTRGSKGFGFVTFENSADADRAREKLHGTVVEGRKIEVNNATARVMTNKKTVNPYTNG

B1: ACUACUG (DNA:RNA)
RNA: GGGAGACCGGAAUUCAGAUUGUCCACUACUGUUAAAUCCCGUCGUAGCCACCA
DNA 1: CAATCTGAATTCCGGTCTCCC
DNA 2: TGGTGGCTACGACGGGATT
B2: UCAAGCA (DNA:RNA)
RNA: B1 RNA with A25U, U27A, C29G, U30C, G31A
DNA 1: CAATCTGAATTCCGGTCTCCC
DNA 2: TGGTGGCTACGACGGGATT
B3: UGGAGAG (DNA:RNA)
RNA: B1 RNA with A25U, C26G, U27G, C29G, U30A
DNA 1: CAATCTGAATTCCGGTCTCCC
DNA 2: TGGTGGCTACGACGGGATT
B4: CGUGGAG (DNA:RNA)
RNA: B1 RNA with A25C, C26G, A28G, C29G, U30A
DNA 1: CAATCTGAATTCCGGTCTCCC
DNA 2: TGGTGGCTACGACGGGATT
B5: CUACAGC (DNA:RNA)
RNA: GGGAGACCGGAAUUCAGAUUGUCCCUACAGCUUAAAUCCCGUCGUAGCCACCA
DNA 1: CAATCTGAATTCCGGTCTCCC
DNA 2: TGGTGGCTACGACGGGATT
B6: AGUCACU (DNA:RNA)
RNA: B1 RNA with C26G, A28C, C29A, U30C, G31U
DNA 1: CAATCTGAATTCCGGTCTCCC
DNA 2: TGGTGGCTACGACGGGATT
B7: UUGGCGC (DNA:RNA)
RNA: B5 RNA with C25U, A27G, C28G, A29C
DNA 1: CAATCTGAATTCCGGTCTCCC
DNA 2: TGGTGGCTACGACGGGATT
B8: UUACUUA (DNA:RNA)
RNA: B5 RNA with C25U, A29U, G30U, C31A
DNA 1: CAATCTGAATTCCGGTCTCCC
DNA 2: TGGTGGCTACGACGGGATT
B9: GAGGAAC (DNA:RNA)
RNA: B5 RNA with C25G, U26A, A27G, C28G, G30A
DNA 1: CAATCTGAATTCCGGTCTCCC
DNA 2: TGGTGGCTACGACGGGATT
B10: GUUUGCU (DNA:RNA)
RNA: B1 RNA with A25G, C26U, A28U, C29G, U30C, G31U
DNA 1: CAATCTGAATTCCGGTCTCCC
DNA 2: TGGTGGCTACGACGGGATT
B11: AAGGGAU (DNA:RNA)
RNA: B1 RNA with C26A, U27G, A28G, C29G, U30A, G31U
DNA 1: CAATCTGAATTCCGGTCTCCC
DNA 2: TGGTGGCTACGACGGGATT
B12: AUGUUUA (DNA:RNA)
RNA: B1 RNA with C26U, U27G, A28U, C29U, G31A
DNA 1: CAATCTGAATTCCGGTCTCCC
DNA 2: TGGTGGCTACGACGGGATT
B13: AGUCGAU (DNA:RNA)
RNA: B1 RNA with C26G, A28C, C29G, U30A, G31U
DNA 1: CAATCTGAATTCCGGTCTCCC
DNA 2: TGGTGGCTACGACGGGATT
B14: GAAGGGG (DNA:RNA)
RNA: B5 RNA with C25G, U26A, C28G, A29G, C31G
DNA 1: CAATCTGAATTCCGGTCTCCC
DNA 2: TGGTGGCTACGACGGGATT
B15: UCUGACA (DNA:RNA)
RNA: B1 RNA with A25U, A28G, C29A, U30C, G31A
DNA 1: CAATCTGAATTCCGGTCTCCC
DNA 2: TGGTGGCTACGACGGGATT
B16: CCCGCAG (DNA:RNA)
RNA: B1 RNA with A25C, U27C, A28G, U30A
DNA 1: CAATCTGAATTCCGGTCTCCC
DNA 2: TGGTGGCTACGACGGGATT
B17: CCCUGCA (DNA:RNA)
RNA: B1 RNA with A25C, U27C, A28U, C29G, U30C, G31A
DNA 1: CAATCTGAATTCCGGTCTCCC
DNA 2: TGGTGGCTACGACGGGATT
B18: CUGUGCG (DNA:RNA)
RNA: B5 RNA with A27G, C28U, A29G, G30C, C31G
DNA 1: CAATCTGAATTCCGGTCTCCC
DNA 2: TGGTGGCTACGACGGGATT
B19: GAGAAAU (DNA:RNA)
RNA: B1 RNA with A25G, C26A, U27G, C29A, U30A, G31U
DNA 1: CAATCTGAATTCCGGTCTCCC
DNA 2: TGGTGGCTACGACGGGATT
B20: CAUAUUA (DNA:RNA)
RNA: B1 RNA with A25C, C26A, C29U, G31A
DNA 1: CAATCTGAATTCCGGTCTCCC
DNA 2: TGGTGGCTACGACGGGATT
B21: GGACACC (DNA:RNA)
RNA: B5 RNA with C25G, U26G, G30C
DNA 1: CAATCTGAATTCCGGTCTCCC
DNA 2: TGGTGGCTACGACGGGATT
B22: GUAUACG (DNA:RNA)
RNA: B5 RNA with C25G, C28U, G30C, C31G
DNA 1: CAATCTGAATTCCGGTCTCCC
DNA 2: TGGTGGCTACGACGGGATT
B23: AGGCAUC (DNA:RNA)
RNA: B5 RNA with C25A, U26G, A27G, G30U
DNA 1: CAATCTGAATTCCGGTCTCCC
DNA 2: TGGTGGCTACGACGGGATT
B24: UAUGAUG (DNA:RNA)
RNA: B1 RNA with A25U, C26A, A28G, C29A
DNA 1: CAATCTGAATTCCGGTCTCCC
DNA 2: TGGTGGCTACGACGGGATT
B25: CAACGGA (DNA:RNA)
RNA: B5 RNA with U26A, A29G, C31A
DNA 1: CAATCTGAATTCCGGTCTCCC
DNA 2: TGGTGGCTACGACGGGATT
B26: UACACUA (DNA:RNA)
RNA: B1 RNA with A25U, C26A, U27C, G31A
DNA 1: CAATCTGAATTCCGGTCTCCC
DNA 2: TGGTGGCTACGACGGGATT
B27: AUACAAG (DNA:RNA)
RNA: B5 RNA with C25A, G30A, C31G
DNA 1: CAATCTGAATTCCGGTCTCCC
DNA 2: TGGTGGCTACGACGGGATT
B28: AUACUAC (DNA:RNA)
RNA: B5 RNA with C25A, A29U, G30A
DNA 1: CAATCTGAATTCCGGTCTCCC
DNA 2: TGGTGGCTACGACGGGATT
B29: CAGGACG (DNA:RNA)
RNA: B5 RNA with U26A, A27G, C28G, G30C, C31G
DNA 1: CAATCTGAATTCCGGTCTCCC
DNA 2: TGGTGGCTACGACGGGATT
B30: UGGUCAA (DNA:RNA)
RNA: B1 RNA with A25U, C26G, U27G, A28U, U30A, G31A
DNA 1: CAATCTGAATTCCGGTCTCCC
DNA 2: TGGTGGCTACGACGGGATT
B31: CUAUCUA (DNA:RNA)
RNA: B5 RNA with C28U, A29C, G30U, C31A
DNA 1: CAATCTGAATTCCGGTCTCCC
DNA 2: TGGTGGCTACGACGGGATT

target: T1, RBFOX1 RRM RbFoxmut (Fox-RRM*); experiment: EMSA; HiTS-Eq, 1 nM pool, 10 min; buffer printed only for the single-RNA assays: 10 mM Tris pH 7.5, 150 mM NaCl, 3.4 mM EDTA, 0.001% NP-40, 30 C; details: tags: His6 N-terminal (pET28a); label: 5' 32P
Summary of the method: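 Relative association constants, normalised to the cognate motif, were derived by comparing read counts of each RNA species with those of the control reaction. The RNA sequenced was the free fraction, separated by 8% native PAGE after a 10 min equilibration in 50 µL of 1 nM 5′-radiolabelled RNA (7 randomized nucleotides) with increasing concentrations of purified wild-type or mutant RbFox RRM.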

Row | Binder | binding signal
1 | B1 | 0.108 KA relative to UGCAUGU
2 | B2 | 0.11 KA relative to UGCAUGU
3 | B3 | 0.108 KA relative to UGCAUGU
4 | B4 | 0.144 KA relative to UGCAUGU
5 | B5 | 0.0608 KA relative to UGCAUGU
6 | B6 | 0.0668 KA relative to UGCAUGU
7 | B7 | 0.108 KA relative to UGCAUGU
8 | B8 | 0.124 KA relative to UGCAUGU
9 | B9 | 0.0766 KA relative to UGCAUGU
10 | B10 | 0.223 KA relative to UGCAUGU
11 | B11 | 0.0935 KA relative to UGCAUGU
12 | B12 | 0.175 KA relative to UGCAUGU
13 | B13 | 0.0858 KA relative to UGCAUGU
14 | B14 | 0.0469 KA relative to UGCAUGU
15 | B15 | 0.0549 KA relative to UGCAUGU
16 | B16 | 0.102 KA relative to UGCAUGU

Row | Binder | binding signal
17 | B17 | 0.186 KA relative to UGCAUGU
18 | B18 | 0.257 KA relative to UGCAUGU
19 | B19 | 0.0893 KA relative to UGCAUGU
20 | B20 | 0.115 KA relative to UGCAUGU
21 | B21 | 0.0634 KA relative to UGCAUGU
22 | B22 | 0.148 KA relative to UGCAUGU
23 | B23 | 0.222 KA relative to UGCAUGU
24 | B24 | 0.0936 KA relative to UGCAUGU
25 | B25 | 0.0691 KA relative to UGCAUGU
26 | B26 | 0.0954 KA relative to UGCAUGU
27 | B27 | 0.0924 KA relative to UGCAUGU
28 | B28 | 0.114 KA relative to UGCAUGU
29 | B29 | 0.0697 KA relative to UGCAUGU
30 | B30 | 0.0865 KA relative to UGCAUGU
31 | B31 | 0.0864 KA relative to UGCAUGU
